{"source": "patent US20040209310A1", "about": "(published 2004)", "target": "T1, myc-tagged full-length F-spondin (human, UniProt Q9HCB6 29-807)", "T1 construct": "It is used here because this construct is also full-length F-spondin from the same clone (ATCC 2190694); also called secreted myc-tagged recombinant F-spondin; pcDNA4-His/myc-F spondin; not shown: His/myc tag of vector pcDNA4-His/myc B", "T1 sequence": "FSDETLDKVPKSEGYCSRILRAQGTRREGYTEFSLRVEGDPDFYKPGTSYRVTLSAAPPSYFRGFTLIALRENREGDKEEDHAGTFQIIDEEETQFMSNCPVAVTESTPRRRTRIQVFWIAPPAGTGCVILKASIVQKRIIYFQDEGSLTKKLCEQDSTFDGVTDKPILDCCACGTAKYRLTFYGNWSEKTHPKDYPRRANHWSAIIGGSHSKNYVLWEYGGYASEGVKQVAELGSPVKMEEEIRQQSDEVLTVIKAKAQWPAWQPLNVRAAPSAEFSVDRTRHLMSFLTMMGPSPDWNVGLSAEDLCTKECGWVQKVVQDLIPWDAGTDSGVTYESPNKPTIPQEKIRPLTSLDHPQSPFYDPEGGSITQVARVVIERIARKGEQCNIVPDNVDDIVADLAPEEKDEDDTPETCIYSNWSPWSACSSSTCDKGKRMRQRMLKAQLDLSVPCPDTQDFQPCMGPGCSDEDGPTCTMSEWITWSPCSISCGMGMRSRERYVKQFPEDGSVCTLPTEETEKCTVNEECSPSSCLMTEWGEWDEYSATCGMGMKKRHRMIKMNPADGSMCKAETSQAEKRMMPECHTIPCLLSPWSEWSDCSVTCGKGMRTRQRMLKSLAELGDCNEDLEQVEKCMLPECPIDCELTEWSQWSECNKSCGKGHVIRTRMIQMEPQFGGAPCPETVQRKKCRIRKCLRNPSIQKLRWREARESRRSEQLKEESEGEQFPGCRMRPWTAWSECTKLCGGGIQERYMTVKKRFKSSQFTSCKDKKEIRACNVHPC", "test": "pulldown of secreted myc-F-spondin on Ig-APP.2 immobilized on protein A-Sepharose, immunoblot", "method": "These studies were performed essentially as described (Ichtchenko et al., 1995, Cell 81:435-443; Hata et al., Nature 366:347-351). Brain membrane extract was precleared by incubation (2 h at 4° C.) with glutathione agarose and incubated overnight at 4° C. with immobilized GST-CAPPD on glutathione agarose beads preequilibrated with buffer B. Beads were washed with buffer B and serially eluted with 2 ml of buffer B containing 0.3 M NaCl, 0.5 M NaCl, 1.0 M NaCl, or 1.0 M NaCl, 10 mM EGTA, and 5 mM EDTA (instead of 2 mM CaCl2). Eluted proteins were analyzed by SDS-PAGE and Coomassie blue staining. Bound proteins were identified by liquid chromatography/mass spectroscopy of tryptic fragments. For pulldown assays, the medium from COS cells transfected with pcDNA4-His/myc-F spondin or pcDNA-His/myc-Mindin (collected 48-72 h post transfection) was adjusted to (final concentrations) 10 mM HEPES-NaOH pH 7.4, 1 mM EGTA, 1% Triton X-100, proteinase inhibitors were added, and the supernatant was precleared with immobilized GST orIg-C. The treated medium was then incubated overnight at 4° C. with GST or GST-CAPPD immobilized on glutathione agarose or with various Ig-APP fusion proteins immobilized on protein-A Sepharose. Glutathione agarose or Protein A beads were washed 4-5× with buffer B, and examined by SDS-PAGE and immunoblotting. […]", "data": [{"binder": "Ig-APP.2 (pCMVIg-APP.2, APP695 […] fused to the Fc-region of human immunoglobulin) (Fc fusion, range […]; also called Ig-fusion protein that includes only the N-terminal domains of APP; CRD alone; not shown: Fc region of human immunoglobulin from vector pCMV-Ig9) LEVPTDGNAGLLAEPQIAMFCGRLNMHMNV[sequence of about 40 residues not given]ANQPVTIQNWCKRGRKQCKTHPHFVIPYRCLVGEFVSDALLVPDKCKFLHQERMDVCETHLHWHTVAKETCSEKSTNLHDYGMLLPCGIDKFRGVEFVCCPLAEESDNVDSADAEEDD", "values": [{"measurement": "binding result", "result": "no binding"}]}]}
